According to patent publication US5589568A (priority 1994, dated 1996):
Read-outs that look alike come from different tables or passages of the source. At least one peptide structure holds a part that was inferred or is arguable (an end, a ring closure or a residue). Some entries repeat one wording, which the source may state once for all of them. For some of these results: At least one compound was matched to its structure with a doubt left. Where a SMILES comes first, the peptide text is derived from it. Where no end group is shown, it is not given here. The star is where a group is joined. Dodecyl = CCCCCCCCCCCC*; X1 = CCCCCCCCCCCCCCCC*

Assays:
Go = biological target: T1, Go (Bos taurus, UniProt P08239); test: steady state GTPase activity of Go in phospholipid vesicles; assay type: biochemical, bovine; conditions: for GTPase Go 100 μM: 100 μM peptide
T1 construct: proteins were extracted from bovine cerebral cortical membranes; from tissue; host or cells: bovine brain (cerebral cortical membranes)

Gs = Gs (Homo sapiens, UniProt P63092); test: steady state GTPase activity of Gs; assay type: biochemical; conditions: for EC50: read-out: Gs af. (apparent affinity, estimated by EC50 of GTPase activity)
Description: Methods for the assay of steady state GTP hydrolysis and GTPγS binding have been described previously by Higashijima, 1987, and Ferguson, 1986, and incorporated herein by reference. Unless noted otherwise, assays of steady state GTP hydrolysis and of the binding and dissociation of guanine nucleotides were carried out in the buffer described previously, but without detergent and with 1.1 mM MgSO4 and the nucleotide specified in the text. When necessary, the concentration of free Mg^2+ was adjusted using EDTA buffers as described previously by Higashijima, 1987, and incorporated herein by reference.
The data set forth in the following tables represent data generated by the inventors employing the steady state GTP hydrolysis, expressed as molar turnover numbers, are described herein under the "Assay" section of the Experimental Procedures in Example 1. The data has been classified according to the criteria outlined below and the effects of each peptide and modified variant on Go, Gi, and Gs have been tabulated. Table III below sets forth data generated for various mastoparan analogues designed by the inventors, in comparison with the various naturally-occurring mastoparans (e.g., MP, MP-A and MP-T). Table IV sets forth similar data generated for various receptor-based peptides designed by the inventors based on a consideration of various G-protein linked receptors.
Apparent affinity (af.) and apparent efficacy (ef.) were estimated by EC50 and maximum turnover number of GTPase activity.

Gi = test: steady state GTPase activity of Gi in phospholipid vesicles; assay type: biochemical, rabbit; conditions: for GTPase Gi 100 μM: 100 μM peptide
[1] = read-out: Goo af. (apparent affinity, estimated by EC50 of GTPase activity), Table IV
[2] = Table IV, read-out: G1 af. (apparent affinity, estimated by EC50 of GTPase activity)
[3] = Table VI, receptor-based peptides
[4] = read-out: Go af. (apparent affinity, estimated by EC50 of GTPase activity), Table VI, receptor-based peptides
[5] = Table VI, receptor-based peptides, read-out: Gi af. (apparent affinity, estimated by EC50 of GTPase activity)
[6] = 15 min at 20° C., PE/PC/PS vesicles
[7] = 30 min at 30° C., PE/PC/PS vesicles

T1 sequence (P08239 2-354 limits assumed): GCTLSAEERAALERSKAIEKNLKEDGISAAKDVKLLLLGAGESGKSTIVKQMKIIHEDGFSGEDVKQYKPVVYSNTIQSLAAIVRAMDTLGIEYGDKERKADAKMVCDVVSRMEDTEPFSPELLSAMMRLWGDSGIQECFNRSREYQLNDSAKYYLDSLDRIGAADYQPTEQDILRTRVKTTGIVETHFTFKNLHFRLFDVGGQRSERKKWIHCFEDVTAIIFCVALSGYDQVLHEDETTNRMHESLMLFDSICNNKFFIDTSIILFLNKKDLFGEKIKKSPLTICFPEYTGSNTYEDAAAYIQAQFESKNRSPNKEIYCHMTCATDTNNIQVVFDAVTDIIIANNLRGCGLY
T1 sequence (P62871 2-340 partner limits assumed): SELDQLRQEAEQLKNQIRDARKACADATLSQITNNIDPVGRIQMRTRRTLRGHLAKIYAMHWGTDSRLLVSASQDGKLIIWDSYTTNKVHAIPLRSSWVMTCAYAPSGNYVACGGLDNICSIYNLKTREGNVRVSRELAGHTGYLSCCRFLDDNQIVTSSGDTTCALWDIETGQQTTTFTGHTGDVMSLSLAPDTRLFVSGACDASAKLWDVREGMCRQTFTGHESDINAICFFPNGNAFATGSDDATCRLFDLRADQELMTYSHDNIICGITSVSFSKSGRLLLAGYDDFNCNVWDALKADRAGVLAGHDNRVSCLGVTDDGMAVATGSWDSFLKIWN
T1 sequence (P63212 2-68 partner limits assumed): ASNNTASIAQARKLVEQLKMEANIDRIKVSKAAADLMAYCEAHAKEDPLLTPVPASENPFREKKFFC
Sequence of Gs (P63092 whole entry): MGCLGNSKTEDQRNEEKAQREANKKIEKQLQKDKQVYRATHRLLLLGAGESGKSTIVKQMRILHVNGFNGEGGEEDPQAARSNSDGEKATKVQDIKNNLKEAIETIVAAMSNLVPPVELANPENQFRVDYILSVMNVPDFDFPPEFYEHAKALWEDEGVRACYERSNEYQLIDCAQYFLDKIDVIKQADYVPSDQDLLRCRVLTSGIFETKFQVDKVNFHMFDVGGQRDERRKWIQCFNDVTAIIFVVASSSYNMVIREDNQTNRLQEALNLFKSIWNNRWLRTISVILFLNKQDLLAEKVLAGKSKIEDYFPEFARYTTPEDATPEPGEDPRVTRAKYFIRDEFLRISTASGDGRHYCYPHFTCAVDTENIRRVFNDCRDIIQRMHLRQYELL

CCCCCCCCCCCCSC[C@H](N)C(=O)N[C@@H](CC(N)=O)C(=O)N[C@@H](Cc1ccc(O)cc1)C(=O)N[C@@H](CCCCN)C(=O)N[C@@H](C)C(=O)N[C@@H](CC(C)C)C(=O)N[C@@H](C)C(=O)N[C@@H](C)C(=O)N[C@@H](CC(C)C)C(=O)N[C@@H](C)C(=O)N[C@@H](CCCCN)C(=O)N[C@@H](C)C(=O)N[C@@H](CC(C)C)C(=O)N[C@@H](CC(C)C)C(N)=O [C12-ER16] (H-C(Dodecyl)NYKALAALAKALL-NH2)
Goo ef. (apparent efficacy, maximum turnover number of GTPase activity) (Go; Table IV): E (Excellent (E): 30-10 fold) | EC50 (Go; [1]): < 3 µM | Gs ef. (apparent efficacy, maximum turnover number of GTPase activity) (Gs; Table IV): F (Fair (F): 2-5 fold) | EC50 (Gs; Table IV): 3 to 10 µM | G1 ef. (apparent efficacy, maximum turnover number of GTPase activity) (Gi; Table IV): S (Super (S): more than 30-fold) | EC50 (Gi; [2]): < 3 µM

CCCCCCCCCCCCSC[C@H](NC(=O)[C@H](CC(C)C)NC(=O)[C@H](C)NC(=O)[C@H](CCCCN)NC(=O)[C@H](C)NC(=O)[C@H](CC(C)C)NC(=O)[C@H](C)NC(=O)[C@H](C)NC(=O)[C@H](CC(C)C)NC(=O)[C@H](C)NC(=O)[C@H](CCCCN)NC(=O)[C@H](Cc1ccc(O)cc1)NC(=O)[C@H](CC(N)=O)NC(=O)[C@@H](N)[C@@H](C)CC)C(N)=O [C12-ER17] (H-INYKALAALAKALC(Dodecyl)-NH2)
Goo ef. (apparent efficacy, maximum turnover number of GTPase activity) (Go; Table IV): E (Excellent (E): 30-10 fold) | EC50 (Go; [1]): < 3 µM | Gs ef. (apparent efficacy, maximum turnover number of GTPase activity) (Gs; Table IV): F (Fair (F): 2-5 fold) | EC50 (Gs; Table IV): 3 to 10 µM | G1 ef. (apparent efficacy, maximum turnover number of GTPase activity) (Gi; Table IV): S (Super (S): more than 30-fold) | EC50 (Gi; [2]): < 3 µM

CCCCCCCCCCCCSC[C@H](N)C(=O)N[C@H](C(=O)N[C@@H](Cc1ccc(O)cc1)C(=O)N[C@@H](CCCNC(=N)N)C(=O)N[C@@H](CCC(=O)O)C(=O)N[C@@H](C)C(=O)N[C@@H](CCCCN)C(=O)N[C@@H](CCC(=O)O)C(=O)N[C@@H](CCC(N)=O)C(=O)N[C@H](C(=O)N[C@@H](CCCNC(=N)N)C(=O)N[C@@H](CCCCN)C(=O)N[C@H](C(=O)N[C@@H](CC(=O)O)C(=O)N[C@@H](CCCNC(=N)N)C(=O)N[C@H](C(=O)N[C@@H](CC(C)C)C(N)=O)C(C)C)[C@@H](C)CC)[C@@H](C)CC)C(C)C [C12-ER18] (H-C(Dodecyl)VYREAKEQIRKIDRVL-NH2)
Go ef. (apparent efficacy, maximum turnover number of GTPase activity) (Go; [3]): F (Fair (F): 2-5 fold) | EC50 (Go; [4]): 10 to 30 µM | effect on Gs (in words) (Gs): significant Gs -specific action | Gs ef. (apparent efficacy, maximum turnover number of GTPase activity) (Gs; [3]): F (Fair (F): 2-5 fold) | EC50 (Gs; [3]): 3 to 10 µM | Gi ef. (apparent efficacy, maximum turnover number of GTPase activity) (Gi; [3]): G (Good (G): 5-10 fold) | EC50 (Gi; [5]): 10 to 30 µM

CCCCCCCCCCCCSC[C@H](N)C(=O)N[C@H](C(=O)N[C@@H](Cc1ccc(O)cc1)C(=O)N[C@@H](CCCNC(=N)N)C(=O)N[C@@H](CCC(=O)O)C(=O)N[C@@H](C)C(=O)N[C@@H](CCCCN)C(=O)N[C@@H](CCC(=O)O)C(=O)N[C@@H](CCC(N)=O)C(=O)N[C@H](C(=O)N[C@@H](CCCNC(=N)N)C(=O)N[C@@H](CCCCN)C(=O)N[C@H](C(=O)N[C@@H](CC(C)C)C(N)=O)[C@@H](C)CC)[C@@H](C)CC)C(C)C [C12-ER19] (H-C(Dodecyl)VYREAKEQIRKIL-NH2)
Go ef. (apparent efficacy, maximum turnover number of GTPase activity) (Go; [3]): F (Fair (F): 2-5 fold) | EC50 (Go; [4]): 10 to 30 µM | effect on Gs (in words) (Gs): significant Gs -specific action | Gs ef. (apparent efficacy, maximum turnover number of GTPase activity) (Gs; [3]): E (Excellent (E): 30-10 fold) | EC50 (Gs; [3]): 3 to 10 µM | Gi ef. (apparent efficacy, maximum turnover number of GTPase activity) (Gi; [3]): G (Good (G): 5-10 fold) | EC50 (Gi; [5]): 10 to 30 µM

CCCCCCCCCCCCSC[C@H](N)C(=O)N[C@@H](CC(C)C)C(=O)N[C@@H](CC(C)C)C(=O)N[C@@H](CCCCN)C(=O)N[C@@H](C)C(=O)N[C@@H](CC(C)C)C(=O)N[C@@H](C)C(=O)N[C@@H](C)C(=O)N[C@@H](CC(C)C)C(=O)N[C@@H](C)C(=O)N[C@@H](CCCCN)C(=O)N[C@@H](C)C(=O)N[C@@H](CC(C)C)C(=O)N[C@@H](CC(C)C)C(N)=O [C12-ER30] (H-C(Dodecyl)LLKALAALAKALL-NH2)
Goo ef. (apparent efficacy, maximum turnover number of GTPase activity) (Go; Table IV): G (Good (G): 5-10 fold) | EC50 (Go; [1]): < 3 µM | Gs ef. (apparent efficacy, maximum turnover number of GTPase activity) (Gs; Table IV): F (Fair (F): 2-5 fold) | EC50 (Gs; Table IV): 3 to 10 µM | G1 ef. (apparent efficacy, maximum turnover number of GTPase activity) (Gi; Table IV): E (Excellent (E): 30-10 fold) | EC50 (Gi; [2]): < 3 µM

CCCCCCCCCCCCSC[C@H](N)C(=O)N[C@H](C(=O)N[C@@H](Cc1ccc(O)cc1)C(=O)N[C@@H](CCCNC(=N)N)C(=O)N[C@@H](CCC(=O)O)C(=O)N[C@H](C(=O)N[C@@H](CCC(=O)O)C(=O)N[C@@H](CC(N)=O)C(=O)N[C@@H](CCCNC(=N)N)C(=O)N[C@@H](C)C(=O)N[C@@H](CCCNC(=N)N)C(=O)N[C@@H](CCC(=O)O)C(=O)N[C@@H](CC(C)C)C(=O)N[C@@H](C)C(=O)N[C@@H](C)C(=O)N[C@@H](CC(C)C)C(=O)N[C@@H](CCC(N)=O)C(=O)NCC(=O)N[C@@H](CO)C(=O)N[C@@H](CCC(=O)O)C(=O)N[C@H](C(N)=O)[C@@H](C)O)[C@@H](C)O)[C@@H](C)CC [C12-ER32] (H-C(Dodecyl)IYRETENRARELAALQGSET-NH2)
Go ef. (apparent efficacy, maximum turnover number of GTPase activity) (Go; [3]): P (Poor (P): less than 2 fold) | EC50 (Go; [4]): > 100 µM | Gs ef. (apparent efficacy, maximum turnover number of GTPase activity) (Gs; [3]): P (Poor (P): less than 2 fold) | EC50 (Gs; [3]): > 100 µM | Gi ef. (apparent efficacy, maximum turnover number of GTPase activity) (Gi; [3]): P (Poor (P): less than 2 fold) | EC50 (Gi; [5]): > 100 µM

CCCCCCCCCCCCSC[C@H](N)C(=O)N1CCC[C@H]1C(=O)N[C@@H](Cc1ccccc1)C(=O)N[C@@H](CCCNC(=N)N)C(=O)N[C@@H](Cc1ccc(O)cc1)C(=O)N[C@@H](CCC(N)=O)C(=O)N[C@@H](CO)C(=O)N[C@@H](CC(C)C)C(=O)N[C@@H](CCSC)C(=O)N[C@H](C(=O)N[C@@H](CCCNC(=N)N)C(=O)N[C@@H](C)C(=O)N[C@@H](CCCNC(=N)N)C(=O)N[C@@H](C)C(=O)N[C@@H](CCCCN)C(=O)N[C@H](C(=O)N[C@H](C(N)=O)[C@@H](C)CC)C(C)C)[C@@H](C)O [C12-ER39] (H-C(Dodecyl)PFRYQSLMTRARAKVI-NH2; N-terminus assumed)
EC50 (Go; [4]): 3 to 10 µM | EC50 (Gs; [3]): 30 to 100 µM

CCCCCCCCCCCCCCCCSC[C@H](NC(=O)[C@H](CC(C)C)NC(=O)[C@H](C)NC(=O)[C@H](CCCCN)NC(=O)[C@H](C)NC(=O)[C@H](CC(C)C)NC(=O)[C@H](C)NC(=O)[C@H](C)NC(=O)[C@H](CC(C)C)NC(=O)[C@H](C)NC(=O)[C@H](CCCCN)NC(=O)[C@H](Cc1ccc(O)cc1)NC(=O)[C@H](CC(N)=O)NC(=O)[C@@H](N)[C@@H](C)CC)C(N)=O [C16-ER17] (H-INYKALAALAKALC(X1)-NH2; N-terminus assumed)
EC50 (Go; [1]): < 3 µM | EC50 (Gs; Table IV): 3 to 10 µM

CC[C@H](C)[C@H](NC(=O)[C@H](CCCNC(=N)N)NC(=O)[C@H](Cc1ccc(O)cc1)NC(=O)[C@H](CC(C)C)NC(=O)[C@H](CC(C)C)NC(=O)[C@H](CC(C)C)NC(=O)[C@@H](NC(=O)[C@H](CC(C)C)NC(=O)[C@@H](NC(=O)[C@H](CC(C)C)NC(=O)[C@H](CC(C)C)NC(=O)[C@@H](NC(=O)[C@H](C)NC(=O)[C@@H](NC(=O)[C@H](CC(C)C)NC(C)=O)[C@@H](C)O)C(C)C)[C@@H](C)O)[C@@H](C)O)C(=O)N[C@@H](CC(N)=O)C(=O)N[C@@H](CC(C)C)C(=O)N[C@@H](CCCCN)C(=O)N[C@@H](C)C(=O)N[C@@H](CC(C)C)C(=O)N[C@@H](C)C(=O)N[C@@H](C)C(=O)N[C@@H](CC(C)C)C(=O)N[C@@H](C)C(=O)N[C@@H](CCCCN)C(=O)N[C@@H](C)C(=O)N[C@@H](CC(C)C)C(=O)N[C@@H](CC(C)C)C(N)=O [ER26]
EC50 (Go; [1]): 3 to 10 µM | EC50 (Gs; Table IV): 3 to 10 µM

CPFRYQSLNTRARAKVI-NH2 [ER39]
EC50 (Go; [4]): 30 to 100 µM | EC50 (Gs; [3]): 30 to 100 µM

LKWKKLLKLLKKLLKLG [TRP3, reference compound]
GTPase Go 10 μM (Go; 10 μM peptide, 15 min at 20° C., PE/PC/PS vesicles): 0.63 min⁻¹ | GTPase Go 100 μM (Go; [6]): 0.54 min⁻¹ | ability to activate Gi and Go (in words) (Go; GTPase, both Gi and Go, gramicidin S and dynorphin at 10 μM): quite active | GTPase Gi 10 μM (Gi; 10 μM peptide, 30 min at 30° C., PE/PC/PS vesicles): 0.44 min⁻¹ | GTPase Gi 100 μM (Gi; [7]): 0.09 min⁻¹

MMITLRKLPLAVAVAAGVMSAQAMA [Signal-2, reference compound]
GTPase Go 100 μM (Go; [6]): 0.36 min⁻¹ | GTPase Gi 100 μM (Gi; [7]): 0.06 min⁻¹

MVLPRLYTATSRAAFRAAKIQ [Signal-1, reference compound]
GTPase Go 100 μM (Go; [6]): 0.22 min⁻¹ | GTPase Gi 100 μM (Gi; [7]): 0.08 min⁻¹
